T1: human CD70, recombinant, N-terminally biotinylated (residues 39-193) (human, UniProt P32970 39-193, N-terminal biotin)
T1 construct: range 39-193; the same entry is used there; also called biotinylated human CD70; CD70 biotin
T1 sequence (looked up): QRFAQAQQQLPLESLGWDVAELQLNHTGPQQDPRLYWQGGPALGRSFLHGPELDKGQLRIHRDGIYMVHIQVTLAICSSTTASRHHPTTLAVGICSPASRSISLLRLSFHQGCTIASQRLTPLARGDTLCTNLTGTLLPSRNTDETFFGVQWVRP

T2: CD70 on cells (CHO-CD70, JVM-3, U266, Raji, THP-1, T cells) (human, UniProt P32970 1-193)
T2 construct: whole, on cells; also called cell-surface CD70
T2 sequence (looked up): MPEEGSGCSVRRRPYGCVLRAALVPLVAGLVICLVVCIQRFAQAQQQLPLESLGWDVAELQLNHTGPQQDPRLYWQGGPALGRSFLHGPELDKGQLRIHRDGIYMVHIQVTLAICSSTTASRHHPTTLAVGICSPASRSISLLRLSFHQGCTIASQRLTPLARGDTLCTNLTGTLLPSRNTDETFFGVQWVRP

B1: 41-TC7-VII-A06 (scFv)
scFv: [skipping about 100 residues]DGYSYGGTSFDYWGQGTLVTVSSGGSGGSGGSGGSQSALTQPASVSGSPGQSITISCTGTSSDVGGYDYVSWYQQHPGKAPKLMIYEVSNRPSGVSNRFSGSKSGNTASLTISGLQAEDEADYYCSSYASSGSLLFGGGTKVTVL
notes: His-tagged
B2: 45-TC7-V-G04 (scFv)
scFv: [skipping about 100 residues]DPGWSYYYGMDVWGQGTTVTVSSGGSGGSGGSGGSQSALTQPRSVSGSPGQSVTISCTGTSSDVGGYNYVSWYQQHPGKAPQLMIFEVSYRPSGVPDRFSGSKSGTSASLAISGLQSEDEADYYCAAWDDSLKGYVFGTGTKLTVL
notes: His-tagged
B3: 36-TC6-VI-D04 (scFv)
scFv: [skipping about 100 residues]AGGWYRESSDAFDIWGQGTMVTVSSGGSGGSGGSGGSSYELTQPPSASGTPGQRVTISCSGSSSNIGSNYVYWYQQLPGTAPKLLIYRNNQRPSGVPDRFSGSKSGTSASLAISGLRSEDEADYYCAAWDDSLSGYVFGTGIKVTVL
notes: His-tagged

Columns and labels:
[1] = biological target: T1, human CD70, recombinant, N-terminally …; assay: SPR
In short: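 The scFv antibodies are human and were isolated by panning a naïve human library on the extracellular domain of CD70 (aa39-193). Their affinity (Kd) was measured by surface plasmon resonance analysis. The binding partner was recombinant human antigen biotinylated at the N-terminus.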

[2] = biological target: T2, CD70 on cells (CHO-CD70, JVM-3, U266, …); assay: 1.25 µg/mL scFv on U266 cells
In short: (§1)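 Tumour cell lines with high CD70 expression (CHO-CD70, JVM3, U266) or low CD70 expression (CHO WT, K562) were used to assess cell binding of human scFv antibodies, with results recorded per line. These antibodies had been selected by panning a naïve human library on the CD70 extracellular domain (aa39-193).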

[3] = biological target: T2, CD70 on cells (CHO-CD70, JVM-3, U266, …); assay: 1.25 µg/mL scFv on JVM-3 cells
In short: as §1

[4] = biological target: T2, CD70 on cells (CHO-CD70, JVM-3, U266, …); assay: 1.25 µg/mL scFv on CHO-CD70 cells
In short: as §1

[5] = biological target: T1, human CD70, recombinant, N-terminally …; assay: CD27 blocking ELISA, 3 µM scFv, strep/HRP
[6] = biological target: T1, human CD70, recombinant, N-terminally …; assay: CD27 blocking ELISA, 3 µM scFv, anti-His/HRP
Procedure: Human scFv antibodies binding CD70 were generated by panning a naïve human library with the extracellular domain (aa39-193) of CD70. 53 antibodies were identified. The ability of CD27 to block CD70 binding of the identified antibodies was measured by ELISA using two different assays. In the first assay, CD27 and his-tagged scFv anti-CD70 binders were simultaneously added to surface bound CD70, and the ability of the scFv binders to bind CD70 was detected with anti-His HRP. In the second assay, plate-bound CD70 was pre-incubated with CD27 for 30 minutes, and then additional CD27 and the his-tagged scFv anti-CD70 binder was added. The ability of the scFv binders to bind CD70 was detected with anti-His HRP. FIG. 34 is a schematic of the two different CD27 blocking assays. CD70 affinity was also measured by SPR analysis. scFv antibodies were also tested for their ability to bind tumor cell lines with high (CHO-CD70, JVM3, and U266) and low levels (CHO WT and K562 of CD70 expression. Results for 39 antibodies are shown in Table 1 below.

| Binder | Kd [1] [nM] | cell binding [2] | cell binding [3] | cell binding [4] | strep/HRP [5] | anti His/HRP [6] |
| --- | --- | --- | --- | --- | --- | --- |
| B1 | 4020 | 1830 | 1220 | 8940 | 1.52 | 1.15 |
| B2 | 78.7 | 19700 | 41500 | 416000 | 0.926 | 2.15 |
| B3 | 119 | 21300 | 11600 | 977000 | 1.51 | 1.53 |

Source: patent publication US20240252641A1 (TCR2 THERAPEUTICS, published 2024)
